{"source": "PubChem BioAssay AID1345082", "about": "(National Center for Advancing Translational Sciences (NCATS), 2018)", "note": "Out of some 94,000 compounds screened, about 4,000 (4.3%) were called active. This list was built around the results that the source calls inconclusive (neither active nor inactive); the mix of calls is not that of the screen. Calls follow the shape of the dose curve; as a rule, active = well fitted inhibition curve with a large enough effect; inconclusive = small, poorly fitted or top-dose-only effect; inactive = no such curve, though single readings can be large or run the other way. Potencies of inconclusive entries are doubtful fits and often do not repeat. Potency is read from the fitted curve at half-maximal effect; tags tell the direction and shape of the fitted curve.", "data": [{"experiment": "Cytotoxic Profiling in NIH 3T3 Cell Line of Diverse Libraries Using Quantitative High-Throughput Screening; also: nearly all actives have a fitted effect of over 55% in size", "conditions": "NIH 3T3 viability, CellTiter-Glo ATP luminescence, 48-72 h; series mostly up to 96.7 µM", "in_short": "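ATP-dependent luminescence (CellTiter-Glo) served as the viability signal for NIH 3T3 cells treated with compound for 48 or 72 hr at 37 °C.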", "values": [{"smiles": "Cc1nn(-c2ccccc2)c2c1C(C(C)C)N(C1CCN(C(=O)c3ccccc3Cl)C1)C2=O", "note": "(configuration not stated)", "Potency": "inconclusive: 44.7 µM [inhibitor, partial curve, poor fit]"}, {"smiles": "Cc1nn(C)cc1CN1C[C@@H](COCC2CC2)[C@H](c2ccccn2)C1", "Potency": "inactive"}, {"smiles": "COc1cccc(OC)c1C(=O)NC1CC(=O)N(CCc2ccc(F)cc2)C1", "note": "(configuration not stated)", "Potency": "inactive"}, {"smiles": "CCN(CC)C(=O)C[C@@H]1CCNC[C@@H]1Cc1cc(-c2ccc(C(C)(C)C)cc2)on1", "Potency": "active: 39.8 µM"}, {"smiles": "O=Cc1cccc(-c2cc(C(F)(F)F)ccc2Cl)c1", "Potency": "inconclusive: 100 µM [inhibitor, partial curve, poor fit]"}, {"smiles": "O=C(Nc1cnc2c(c1)CCC2)c1cccc(F)c1", "Potency": "inconclusive: 56.2 µM [inhibitor, partial curve, poor fit]"}, {"smiles": "COc1ncccc1-c1cc(C(=O)NCC2CCOCC2)c2c(c1)ncn2C", "Potency": "inconclusive: 39.8 µM [inhibitor, partial curve]"}, {"smiles": "O=C(NCCc1ccccc1)c1ccc2nc(-c3cccnc3)oc2c1", "Potency": "inactive"}, {"smiles": "O=[S+]1([O-])NCC2(CCN(Cc3ccc(OC(F)(F)F)cc3)C2)Nc2ccccc21", "note": "(configuration not stated)", "Potency": "inconclusive: 44.7 µM [inhibitor, partial curve, poor fit]"}, {"smiles": "CCC[C@@H]1CN(C(=O)c2cccc(N3CCS(=O)(=O)CC3)c2)C[C@H]1N(C)C", "Potency": "inactive"}, {"smiles": "CC1(c2ccccc2)N(Cc2cccnc2)C(=O)OC12CCN(C(=O)Cc1cccc(F)c1)CC2", "note": "(configuration not stated)", "Potency": "inconclusive: 10 µM [inhibitor, full curve, poor fit]"}, {"smiles": "Cn1ncc2c(C(=O)NCCc3ccc(Cl)cc3)cc(-c3ccc(Cl)cc3)nc21", "Potency": "inconclusive: 50.1 µM [inhibitor, partial curve, poor fit]"}, {"smiles": "COCCn1c(=O)c2c(n1Cc1ccccc1)CN(Cc1ccccn1)CC2", "Potency": "inconclusive: 112 µM [inhibitor, single point]"}, {"smiles": "O=C(O)c1cccc(C2CCCN(C(=O)c3ccccc3-n3cccn3)C2)c1", "note": "(configuration not stated)", "Potency": "inactive"}, {"smiles": "CNC(=O)[C@@H]1CN(C(=O)c2ccc3cc[nH]c3c2)C[C@H]1C1CCN(C)CC1", "Potency": "inactive"}, {"smiles": "COc1ccccc1C(=O)N1CCC(N2C(=O)c3c(c(C)nn3-c3ccccc3)C2C)C1", "note": "(configuration not stated)", "Potency": "inconclusive: 44.7 µM [inhibitor, partial curve, poor fit]"}, {"smiles": "CCn1c(=O)c2ccnn2c2ccc(C(=O)NCCc3cccnc3)cc21", "Potency": "inconclusive: 50.1 µM [inhibitor, partial curve, poor fit]"}, {"smiles": "CN1CCC(C(=O)N2Cc3ccccc3CC3(CCCCN3Cc3ccncc3)C2)CC1", "note": "(configuration not stated)", "Potency": "inactive"}, {"smiles": "COc1cccc(-c2ccccc2NC(=O)C2CCN(Cc3ccccc3F)CC2)c1", "Potency": "active: 44.7 µM"}, {"smiles": "CN(C)c1ccc(CN[C@H]2CC(C)(C)[C@@H]3C[C@@](C)(O)CC[C@]23CCC(=O)N2CCOCC2)cc1", "Potency": "inactive"}, {"smiles": "COCCC(=O)N1CCC(Oc2ccccc2-c2nc(C3CC3)no2)C1", "note": "(configuration not stated)", "Potency": "inactive"}, {"smiles": "Cc1ccccc1[C@H]1C[C@@H](O)[C@@H](O)[C@@H]1NCC(C)(C)O", "Potency": "inactive"}, {"smiles": "COc1ccc(CN2CCc3oc(C)c(C(=O)NC4CCN(C)CC4)c3C2)cc1", "Potency": "inactive"}, {"smiles": "COc1ccc(N2CC(c3noc(-c4ccc(C)c(C)c4)n3)CC2=O)cc1OC", "note": "(configuration not stated)", "Potency": "inactive"}, {"smiles": "COc1ccc(CC(=O)N(C)C2CCc3ccccc3C2)cc1", "note": "(configuration not stated)", "Potency": "inconclusive: 50.1 µM [inhibitor, partial curve]"}, {"smiles": "COC(=O)[C@@H]1Cc2c([nH]c3ccccc23)[C@H]2C[C@@H](N3CCCCC3)C[C@@H](c3ccccc3F)N21", "Potency": "inconclusive: 22.4 µM [inhibitor, full curve, poor fit]"}, {"smiles": "CN(C)c1cccc(-c2cnc(Nc3ccc(N4CCOCC4)cc3)c3c2CCO3)c1", "Potency": "inconclusive: 22.4 µM [inhibitor, full curve, poor fit]"}, {"smiles": "CCOC(=O)C1(Cc2ccccc2Cl)CCN(C(=O)c2ccsc2)CC1", "Potency": "inactive"}, {"smiles": "COc1ccc(NC(=O)c2ccc3c(c2)C2(CCCN(C)C2)CN3Cc2cccnc2)cc1", "note": "(configuration not stated)", "Potency": "active: 31.6 µM"}, {"smiles": "O=C(NC1CCCN(Cc2ccc(-c3cncnc3)cc2)C1)C1CCCC1", "note": "(configuration not stated)", "Potency": "inactive"}, {"smiles": "COC[C@@H]1CN(Cc2ccc(OC)cc2)C[C@H]1C(=O)N(C)C", "Potency": "inactive"}, {"smiles": "COc1ccc(-c2nc(C3CC3)nc3c2CCN(CCC(C)C)CC3)cc1", "Potency": "inconclusive: 70.8 µM [inhibitor, single point]"}, {"smiles": "O=C(Nc1cccc(Cl)c1)C1=NO[C@@H]2CN(CCc3ccccc3)C[C@H]12", "Potency": "inconclusive: 79.4 µM [inhibitor, partial curve, poor fit]"}, {"smiles": "CS(=O)(=O)N1CCCC(C(=O)NCCCN2CCCc3ccccc32)CCNC(=O)CC1", "note": "(configuration not stated)", "Potency": "inconclusive: 50.1 µM [inhibitor, partial curve, poor fit]"}, {"smiles": "COCCNC(=O)c1cn2cc(-c3ccc(F)cc3)sc2n1", "Potency": "inconclusive: 50.1 µM [inhibitor, partial curve, poor fit]"}, {"smiles": "COc1ccc2[nH]c3c(c2c1)CCNC31CCN(C(=O)c2cnccc2C)CC1", "Potency": "inactive"}, {"smiles": "COc1ncccc1-c1cc2c(ccn2CC2CCN(C)CC2)c(N2CCOCC2)n1", "Potency": "active: 44.7 µM"}, {"smiles": "O=C(NCCCc1ccccc1)c1nc2sccn2c1-c1cccnc1", "Potency": "inconclusive: 44.7 µM [inhibitor, partial curve, poor fit]"}, {"smiles": "COc1ccccc1CN1CCNc2cnc(Nc3ccccc3)cc2C1", "Potency": "inconclusive: 89.1 µM [inhibitor, partial curve, poor fit]"}, {"smiles": "COc1ccc(F)cc1S(=O)(=O)N1CCC(n2cnnc2C)CC1", "Potency": "inactive"}, {"smiles": "CC[C@H]1CN(S(=O)(=O)c2c(C)noc2C)CC[C@H]1CC(=O)N1CCC(C(=O)OC)CC1", "Potency": "inconclusive: 39.8 µM [inhibitor, partial curve]"}, {"smiles": "COc1ccccc1C(=O)Nc1cc(-c2ccncc2)nn1-c1ccccc1", "Potency": "inconclusive: 50.1 µM [inhibitor, partial curve, poor fit]"}, {"smiles": "CCCC(=O)NCCc1noc(-c2ccccc2)n1", "Potency": "inactive"}, {"smiles": "O=C(NCc1cccc(C(F)(F)F)c1)C1CCCN(Cc2cccc(-c3ccc(F)cc3F)c2)C1", "note": "(configuration not stated)", "Potency": "inconclusive: 44.7 µM [inhibitor, partial curve, poor fit]"}, {"smiles": "O=C(c1ccco1)N1CCC(N2CCCC(C(=O)N3CCCC3)C2)CC1", "note": "(configuration not stated)", "Potency": "inactive"}, {"smiles": "CC1Oc2ccc(NS(=O)(=O)c3ccc(Cl)cc3)cc2CN(Cc2ccccc2F)C1=O", "note": "(configuration not stated)", "Potency": "active: 35.5 µM"}, {"smiles": "O=C(COc1ccccc1)N1CCC2(CCC(=O)N(Cc3ccccc3)CC2)CC1", "Potency": "inconclusive: 50.1 µM [inhibitor, partial curve, poor fit]"}, {"smiles": "COc1cc(SC)ccc1C(=O)N[C@H]1CCN2C(=O)N(c3ccc(OC(F)(F)F)cc3)C(=O)[C@@H]2C1", "Potency": "inactive"}, {"smiles": "Cc1nn(-c2ccccc2)c2c1C(C)N(C1CCCN([S+](=O)([O-])c3c(C)noc3C)C1)C2=O", "note": "(configuration not stated)", "Potency": "inconclusive: 44.7 µM [inhibitor, partial curve, poor fit]"}, {"smiles": "Cc1ccsc1C(=O)N1CCC2(CC1)NC(=O)N(c1cccc(F)c1)N2", "Potency": "inconclusive: 35.5 µM [inhibitor, partial curve, poor fit]"}, {"smiles": "Cc1oc2ccn(Cc3ccccc3F)c(=O)c2c1C(=O)NCC1CCCO1", "note": "(configuration not stated)", "Potency": "inconclusive: 50.1 µM [inhibitor, partial curve, poor fit]"}, {"smiles": "COCCCn1c(=O)c(C(=O)N2CCN(C(=O)c3ccccc3OC)CC2)nc2cccnc21", "Potency": "inactive"}, {"smiles": "COc1ccc(C)cc1-c1cn(C)c(=O)n2cc(COc3ccccc3)nc12", "Potency": "inconclusive: 56.2 µM [inhibitor, partial curve, poor fit]"}, {"smiles": "Cc1cccc(N(C)C(=O)CN2C(=O)NC3(CCOCC3)C2=O)c1", "Potency": "inactive"}, {"smiles": "CC(=O)N[C@H]1CC[C@]2(C)CC[C@@H](C(C)C(=O)NC3CCCCC3)[C@H](O)[C@H]2[C@@H]1C", "note": "(some centres not stated)", "Potency": "inactive"}, {"smiles": "COc1ccc(S(=O)(=O)N2CCCC(Cc3noc(-c4cccnc4)n3)C2)cc1", "note": "(configuration not stated)", "Potency": "inconclusive: 22.4 µM [inhibitor, partial curve, poor fit]"}, {"smiles": "CCOc1ncccc1C(=O)N1CCc2onc(-c3ccccc3F)c2C1", "Potency": "inconclusive: 39.8 µM [inhibitor, full curve]"}, {"smiles": "CC(C)CC(=O)N1CCCN(Cc2ccc3c(c2)OCO3)c2ccccc21", "Potency": "inconclusive: 50.1 µM [inhibitor, partial curve, poor fit]"}, {"smiles": "COc1ccc(CN2C=C(C(=O)OCc3nc(C4CC4)no3)C(C)=NS2(=O)=O)cc1", "Potency": "inconclusive: 7.94 µM [inhibitor, full curve, poor fit]"}, {"smiles": "O=C(CSc1ccccn1)NCc1cccnc1N1CCOCC1", "Potency": "inconclusive: 89.1 µM [inhibitor, single point]"}, {"smiles": "COc1ccc(-c2cnc3[nH]cc(CC(=O)NCc4cccnc4)c3c2)cn1", "Potency": "active: 79.4 µM"}, {"smiles": "CN(Cc1cccn1C)C(=O)Nc1ccccc1", "Potency": "inconclusive: 17.8 µM [inhibitor, full curve, poor fit]"}, {"smiles": "COc1ccc2c(c1)OCC(CNC(=O)c1noc3c1CCCC3)C2", "note": "(configuration not stated)", "Potency": "inconclusive: 39.8 µM [inhibitor, full curve, poor fit]"}, {"smiles": "COc1cccc(OCc2nc(C(=O)N3CC4C[C@@H]5CC3C[C@H](C4)C5)co2)c1", "Potency": "inconclusive: 56.2 µM [inhibitor, partial curve, poor fit]"}, {"smiles": "O=C(NC1CCCCC1)C1CCCN(Cc2cccc(-c3cccs3)c2)C1", "note": "(configuration not stated)", "Potency": "active: 28.2 µM"}, {"smiles": "CN(CCc1ccccc1)[C@@H]1[C@H](O)[C@H](CO)O[C@@H]1CNS(=O)(=O)c1cccs1", "Potency": "inactive"}, {"smiles": "Cc1ccc(-c2nnc(C3CN(C(=O)C4CCCCCC4)CC34CCOCC4)o2)cc1", "note": "(configuration not stated)", "Potency": "inactive"}]}]}
